# Experimental data reported in the supplement of paper PMC3334620.
# Over roughly 33,000 sequences, “E-score (-0.5 to 0.5)” has its median near -0.017; the highest 2% begin near 0.3. The list shows a part of the results.
# Biological target: T1, Sut1 (UniProt P53032)
# T1 sequence: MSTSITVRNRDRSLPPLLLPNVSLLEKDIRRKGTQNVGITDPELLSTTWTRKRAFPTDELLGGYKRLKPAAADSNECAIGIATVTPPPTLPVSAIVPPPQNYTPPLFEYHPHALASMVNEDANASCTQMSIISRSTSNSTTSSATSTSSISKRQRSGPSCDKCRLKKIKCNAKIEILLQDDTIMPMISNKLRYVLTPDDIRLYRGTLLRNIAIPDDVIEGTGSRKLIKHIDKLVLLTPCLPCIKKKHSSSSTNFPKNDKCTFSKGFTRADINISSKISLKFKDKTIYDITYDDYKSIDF
# Experiment: PBM E-score (8-mer binding enrichment) (E-score (-0.5 to 0.5)); higher = stronger / more preferred TF binding; most listed sequences are background and not binding sites
# Details: protein concentration: 200 nM; construct: GST-full length
# Summary of the method: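 Detection of bound protein used fluorescent anti-GST, with scans normalised by masliner. The proteins were GST-tagged yeast transcription factors applied at about 100-200 nM to universal all-10-mer Agilent arrays made double-stranded by primer extension. Each ungapped eight-base word, pooled with its reverse complement, was scored with an E-score from the Universal PBM Analysis Suite.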
row,Sequence,PBM E-score
1,ATTTTGAG,0.146
2,AGGAAATG,0.0446
3,TAAGTAAA,0.0854
4,AACAGCTC,-0.0889
5,GCGCCCCA,-0.319
6,AGCAGGTG,-0.102
7,ACGATTAT,0.171
8,AACCGCCT,-0.00836
9,CACAAAAA,0.25
10,CACTAGCC,-0.118
11,ATGTGCAA,0.001
12,ATATGAAG,0.084
13,GCTGGTTA,-0.062
14,CATACCAG,-0.186
15,ATGTCGCC,-0.221
16,AAAGTTAG,0.102
17,ACGAAACC,0.107
18,CAGGTCGA,-0.0726
19,AACTCGTC,-0.0207
20,ACTTCTCG,0.153
21,AAGACTGT,-0.274
22,AAGTTGAG,0.136
23,GGATTCGA,-0.0691
24,AGAAAAAA,0.175
25,ATCCTTGG,0.00304

row,Sequence,PBM E-score
1,CCATTTAA,0.141
2,CACTCAGC,-0.17
3,GCACCGAA,0.168
4,AATTCGAG,-0.0711
5,AGGGGCAA,-0.141
6,AGTGTTGA,0.0298
7,AAGTGATG,0.00091
8,AAAGCGAA,0.157
9,ATCCATTC,0.128
10,CAGGGTTC,-0.124
11,CATTGGGG,-0.263
12,AGTCTAGG,-0.0461
13,CGTACTGC,-0.0978
14,GGTATTAC,0.217
15,GGGACCGA,0.0612
16,AAACAAGG,-0.0876
17,AATACCCA,0.0987
18,TATTTAAA,0.279
19,GTAAGACA,-0.0361
20,AGTTCCAA,0.206
21,AATTGCAC,-0.113
22,GCAACGGA,0.306
23,CAGTACCG,0.0163
24,TAAGCAAA,0.144
25,GTTTGAGA,-0.0795

row,Sequence,PBM E-score
1,CGTAGAAC,-0.0804
2,ATAGAAGC,0.158
3,ACAATCTC,0.024
4,AACTCACC,0.0245
5,CTGTCTAC,0.105
6,GACGTTTA,-0.107
7,GAAAAATC,0.169
8,AGGATGTA,0.0443
9,ACTGGCCG,-0.218
10,ACCTGTAT,-0.0372
11,AAAATCGG,0.0903
12,GTCCTGGA,-0.308
13,GACGATGA,0.00175
14,CCGCGTTC,-0.0365
15,AGCGGTAG,-0.265
16,CAGGGGGC,-0.274
17,GCCCGCGA,-0.0595
18,AGTTCCCA,-0.122
19,AGGGTCCG,0.108
20,ACAGGTGA,-0.0348
21,CATATCGG,0.0712
22,CTTCTCCA,-0.222
23,CAAATATA,0.199
24,TGTGTCAA,0.104
25,CAGGACGC,-0.21

row,Sequence,PBM E-score
1,CGCGATGC,-0.232
2,CTATGCAG,-0.0917
3,AAAATTGT,0.219
4,AAGAGGAT,-0.104
5,ACAAGATC,-0.0402
6,TACTGGCA,-0.145
7,GAGGGCAA,-0.158
8,AACCTACA,0.173
9,TACTCGGA,0.324
10,CACCTAGA,-0.153
11,AGTCATTC,-0.004
12,ATGCGACG,-0.136
13,AGGAACAC,0.101
14,CTTACGAA,0.111
15,AGGTAGTA,-0.0238
16,ACGCAGCG,-0.204
17,CAGCCCGA,-0.211
18,ATTCATCA,0.173
19,ACAGCCAG,-0.0428
20,CGATGGAA,0.0782
21,AACACTGG,-0.107
22,ACTCTTCC,-0.0775
23,ACGCGGCC,-0.273
24,CGGAAGGC,0.0817
25,GAGTAGAA,0.22

row,Sequence,PBM E-score
1,GAAGACCA,0.149
2,ATAAGAGC,0.0743
3,AGCCGTAA,0.042
4,GCGCACCA,-0.0911
5,CCTGCTAA,-0.117
6,TCTAAACA,0.0637
7,GTATGTCA,0.12
8,GAGCAGCC,-0.251
9,AGGCCGTA,0.0171
10,CGCATGCA,-0.183
11,AGCGGTGA,-0.0452
12,AGTAATAA,0.264
13,ACTAAGAG,0.109
14,CAGAACAG,0.058
15,GATTTCGA,0.013
16,GAAATGCC,0.015
17,AGAAAGAC,0.243
18,AATAGTGC,0.106
19,CAGTACAC,-0.112
20,CTACATCC,0.082
21,CATAAGTC,0.122
22,CCCCAACC,-0.288
23,GGACGTCC,-0.0184
24,CCCGGGAG,-0.175
25,GACCAATC,-0.11

row,Sequence,PBM E-score
1,GTGTCAGA,-0.0338
2,ACTGCTCT,-0.2
3,GTACTGCA,-0.177
4,TCCCTGCA,-0.0928
5,GACGTGCC,-0.329
6,GTTGAGAA,0.148
7,ATTAACGG,0.171
8,ATGGCCTA,-0.0487
9,AGGGGGTC,-0.412
10,AGCATCGA,0.0511
11,AACATCTT,-0.028
12,TGTGCGAA,-0.122
13,ACCAGGCG,-0.0895
14,GAAGTCTA,0.0111
15,ATGCAAGA,9e-05
16,AGGATAAT,0.113
17,GCAATGAC,-0.121
18,TCCCACAA,0.0545
19,CGGTAGTC,0.061
20,AAAACATT,0.14
21,CCATTAAG,-0.0131
22,CGGAGTAA,0.483
23,GACGTGGC,-0.317
24,AATAACTA,0.183
25,CGTCGAGA,-0.159

row,Sequence,PBM E-score
1,AGAAATAT,0.17
2,TAATAAGA,0.279
3,CTTATTCA,0.057
4,ATTAAAAT,0.213
5,ATCCCTGG,-0.271
6,CGGGACTC,0.0911
7,AACATCGC,-0.177
8,GCTTTGGA,0.189
9,AATTGGAT,0.131
10,CAACTCCA,0.112
11,GACCTCTA,-0.18
12,CAAGTAGG,-0.298
13,AAACACGC,0.0836
14,GTCATAAA,0.199
15,ACGTCGCG,-0.178
16,GACGATCA,-0.0846
17,CAGTACGC,0.0614
18,CTGACTCA,-0.214
19,ATAGTTTC,0.185
20,ACTAGATA,0.22
21,CAATGTGG,-0.163
22,CCTAGGAA,-0.0522
